Results published in the supplement of paper PMC11417369.
The other results are listed elsewhere or left out.

Test system: PfSIP2 AP2 domain 1 (GST-tagged)
Experiment: gcPBM binding intensity (ln(normalized median fluorescence intensity)); higher = stronger DNA binding
How it was run: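 An Agilent 4 × 180k array carrying primer-extended double-stranded 36-bp intergenic genomic probes and negative controls received GST-tagged P. falciparum DNA-binding domains expressed in E. coli, about 25 μg on average, for 1 h. The binding buffer contained 1× PBS, 1% milk, 0.2 mg/ml BSA, 0.5% salmon testes DNA and 0.03% Triton X-100. Binding intensity is the top Masliner-normalised natural-log median intensity across replicate spots of either probe orientation, read after Alexa488 anti-GST antibody staining and a 488 nm scan.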

Sequence | gcPBM binding intensity (ln)
GCTTATATAAAAAGTTGTACAACCGAATCTTTTACA [XGTACX_site2119] | 7.44
TAATATCATTTATGTAGTACTATAACAAGAACTATA [XGTACX_site3618] | 6.92
AAAAAAAAAAAGCACACACACATATGAGTATATATA [CACACA_site4683] | 6.94
AATGTAAAAGTAAACACACACATATATAAATACATA [CACACA_site5386] | 7
TACACAAGCAGACACACACACATATATATATATATA [CACACA_site1270] | 9.13
TAGATATATAGACACACACACATTAATACCTATATT [CACACA_site7605] | 7
TGTCATTTAATTTTTTGTACGAAAAAAACATATAAA [XGTACX_site4952] | 7.51
AGTTGTTTTAATAATGCATGTTATTTTATTTTAATA [TGCATGCA_site168] | 7.11
TATATATATAGACACACACACACATATATATATATA [CACACA_site9366] | 9.05
GTATATATATATGTATATATTTTATTTTATTTTTAT [CACACA_negctrl_site1439] | 6.77
CTTATTATTATATGGGTGCTCATATTTTTCTTTTTT [GTGCAC_site9723] | 8.28
ACAAACATTAGGGAAGCATGCAATATTTTTTTACAT [TGCATGCA_site372] | 6.8
ATTATATACATATATATACACACGTAGTTTCTATTT [CACACA_site8697] | 6.92
TATAAATAAATAGATACACACATATATATAAATACA [CACACA_site155] | 6.97
ATATATATATATAAATGTACATTTTTCAATAGTTTT [XGTACX_site7449] | 8.97
TACTTTTTATTTTCTTGTACTTAATTGTCCAGATTT [XGTACX_site4334] | 7.11
CACCCCCACAGACACACACACACACCCACATATATA [CACACA_site365] | 7.62
ATTCTTATTTAAAGGTGTACTCTTAAACAGATTTTA [XGTACX_site3526] | 7.15
GTACACATATAGTAATAATTTTATTATATTTTTTTG [CACACA_negctrl_site843] | 6.9
ATTTTAATATAAAATACACACTACTATTATAAATAT [CACACA_site4917] | 6.93
AGATTTAAATTTATATGTACATAATATGGGCGTATA [XGTACX_site6631] | 7.54
GGTCTTCTTAATATACTGCACTGTATACGTATATAA | 8.41
TTCATAAAATGATATTGTACAAATAAATAATAGTAT [XGTACX_site819] | 7.45

Sequence | gcPBM binding intensity (ln)
TGTAGATTTTGTAACACACACATATATATACATATA [CACACA_site2405] | 7.08
TAGAAGCATGGACACACACACATACATACCCATACA [CACACA_site4916] | 7.18
TTATTTTTCCGGAATAGTACATAGACGCAGATATAA [XGTACX_site6356] | 7.5
TCTATATCTTTCAACACACAAATTTTTTTTTCCATC [CACACA_site4238] | 6.95
AAAAAAAAAAAAAAAGTGCACAGTCGTTTTAAAAAA [GTGCAC_site9848] | 10.7
ATTAACTATCATAACACACACAGTAGACATATTTTT [CACACA_site1822] | 7.04
AAATCATTTAAGAACACACAAATATTTCCATTAAAT [CACACA_site6808] | 6.9
AAGATAATATTTTCTTGTACGCATGCACATACAAAT [XGTACX_site7181] | 7.78
CTTTTCTCCCTCCATAGTACAATTATAAAAATATAT [XGTACX_site3090] | 7.58
ATGCAAAGTTTATAAAGTACATAAGTCAAAATAAAA [XGTACX_site1441] | 7.04
CTCAATGTTTGCGATACATGCAAAAATTTTTAGAAT [TGCATGCA_site165] | 7.1
TACATTTCATTGTAATCATAAAAAATAAAGAAAAAA [XGTACX_negctrl_site542] | 6.88
GAAAGGATATATATATATATATATATAATACATTTC [GTGCAC_negctrl_site677] | 7.75
TATATATACATACATACACACATATATATATATATT [CACACA_site4110] | 7.27
ACATATAATATATAATGTACAAAATTGTTAACAATA [XGTACX_site3798] | 6.98
AAGAGAAAAATATATACACACACATAAATATATACA [CACACA_site8573] | 6.98
AAGGGGTAAAGAAAAACACACAAAAAATAAAAATAT [CACACA_site361] | 7.26
GATGAAAATAGAAATACACACTAAAAAATAAAATTA [CACACA_site4764] | 6.75
TGCATACTTTTGTAAGTGCATAAAATCGTACCATGC | 7.73
GAAATAATTCGATGTGCATGTAACGTTTCCCCAAAG [TGCATGCA_site122] | 7.34
AATTAAAAAAAATACACACACACATACACATATATA [CACACA_site3298] | 7.1
CGTATTTATATAATTACACACCATATTATAATTATT [CACACA_site3760] | 7.05
CCAAAAAAAAAAAAAAGTACATAAAAACAAGAGAAT [XGTACX_site3037] | 7.09

Sequence | gcPBM binding intensity (ln)
AAATAAAAAACAGTGGCACACATTATGTATCCACCT [CACACA_site3756] | 6.73
AAAAAAAAAATATACACACACATATAAATATAAATA [CACACA_site7574] | 7.01
TTAAAGTAGAGAAAATGTACATTTTATTAACACAAT [XGTACX_site6369] | 6.99
TACAGATACAGATACACACACACACCGAAATAAATA [CACACA_site4865] | 7.16
TAAATTCCTACATACGCATGTACATTAAAATTTTAA [TGCATGCA_site215] | 6.99
AAAATAAAAAGAAAAAGAAAAAAGGGGGGGTAGGGG [CACACA_negctrl_site1048] | 7.86
CTTTAAGTTATATGAAGTACAATTTAAAAAAATGAA [XGTACX_site358] | 6.98
ATACATTCAATGAAATGTACGTTTATTTACAGAAGA [XGTACX_site2999] | 6.93
TAATGGTTATCACTAACATGCAGTAATATTATATAG [TGCATGCA_site176] | 6.71
TTTTTTCTTTTTTTTTGTACATATAATATTTATGTT [XGTACX_site302] | 6.92
AAAAGAAAAAAAAAAAAAAAAAAAATTAAAATATAA [CACACA_negctrl_site17] | 6.58
ATATATATATGTATATGTACATATATATGGTAACTC [XGTACX_site681] | 9.12
ATATAATATTTATATGCACACTTTTCTATATATAAG [CACACA_site6100] | 7.7
TAAAATATTATTTATTTACACACCAATCTTCTTTTC [CACACA_site9320] | 6.72
TCGTATTTAAAATGTAGTACATAATTTGAAAAATAA [XGTACX_site5832] | 7.08
CTTAGGTTAAAAGTGTGTACATAAAAACATATATAA [XGTACX_site2213] | 7.36
ATAAGAAAAAGACACACACACAAAAAAAAAAAAAAA [CACACA_site2828] | 7.02
TAAATAAATTATTTTCGTACTTATTTATTTTAATTA [XGTACX_site283] | 6.9
AAAAAAAAAAAACACACACACAAATACAAATGGTAA [CACACA_site1720] | 7.11
AATACATATCAAAGCTGTACAAAGTAAATTTTACTT [XGTACX_site3525] | 6.79
AAGTTATTGATATATACACACAAATATAAATAATAT [CACACA_site6695] | 6.89
TTCAATAGGTATAATTGTACTTAATAATATATTGTT [XGTACX_site8363] | 6.91
TTATGTTCTTTAAAACCACACACCCCCCAACCCCCC [CACACA_site8742] | 10.1

Sequence | gcPBM binding intensity (ln)
TATATATGCATATACATACACACATAACACATACGT [CACACA_site3833] | 7.26
AATGTTTTATTTTGAAGTACATTTAAGAATTTTTTA [XGTACX_site7814] | 6.86
TATGAAATTATAATTACACACAGGAAAATAAAATGT [CACACA_site1517] | 7.26
ATATAATAATAAGGCACACAAATTAAAATATAAAAA [CACACA_site3710] | 7.02
CATTATGTCGTAAATACACACATACATATACATACA [CACACA_site8383] | 7.02
TTTTGACCATATCTGTTGCACTTTTGTGCTATTCGA | 8.31
AAGGATCACAGACAAACACACATATATATATATATA [CACACA_site4469] | 9.55
AAATAATTTGTTGACACACACACACCCATACAGATA [CACACA_site5291] | 7.23
TAAATTTTTTCCTCCTGTACTTATTATATTTTTTTG [XGTACX_site1572] | 7.02
ATTAATTCGTTTTGTACACACATAATGAGTAATTTA [CACACA_site7118] | 6.97
ATAAAAATTGATTATACACACGCGCCCAGACAACAA [CACACA_site5870] | 7.24
ATATAGATGCATAATACACACATCAGATAATTAACC [CACACA_site6871] | 7.1
TTTTTTTTTTTTTTTTGTACTCATATCTACTATCAT [XGTACX_site274] | 6.99
ACAAGGTTTACGGGTAGTACAAATTTTTGAACATCT [XGTACX_site4739] | 6.76
AGCCAAACCTTAAATTTAGCAATAAGTTTACAGGTC [CACACA_negctrl_site360] | 6.67
ATTAAAAGTTTATACAAATAAAAAACAAAACAAAAA [CACACA_negctrl_site1030] | 7.14
TGTGTATTTATAAATACACACCAAATGTTAATATAT [CACACA_site6904] | 6.97
GTAAAATGATATAAATGTACATAATATATATATGTC [XGTACX_site4049] | 7.02
TGTCATATTATAAATTGTACAAATAGTATAATTATT [XGTACX_site581] | 7.09
ATTTTATCTTTAAACTGTACGTATTAATATGTAGAA [XGTACX_site3077] | 7.09
